Reference: the supplement of paper PMC8728848
The other results are listed elsewhere or left out.

How the values were obtained:
Experiment in all cases: glycan array binding signal (z-score within array); higher = stronger binding
Settings in all cases: glycan notation: IUPAC condensed, linker removed
[1] = target: Neu5Ac(a2-6)Gal(b1-4)GlcNAc(b1-3)Gal(b1-4)[Fuc(a1-3)]GlcNAc(b1-3)Gal(b1-4)[Fuc(a1-3)]GlcNAc
How it was run: (§1)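 Negative Z-scores can be read as non-binding. The Z-score is calculated within each array and then averaged across arrays of one protein sequence at different concentrations or buffers and across linkers. Arrays, 3228 in all, were curated from the Consortium for Functional Glycomics database and kept only where the protein sequence was available.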

[2] = target: Neu5Ac(a2-6)Gal(b1-4)GlcNAc(b1-3)GalNAc
How it was run: as §1

[3] = target: Neu5Ac(a2-6)Gal(b1-4)GlcNAc6S
How it was run: as §1

Neu5Ac(a2-6)GalNAc = target: Neu5Ac(a2-6)GalNAc
How it was run: as §1

[4] = target: Neu5Ac(a2-6)GalNAc(b1-4)GlcNAc
How it was run: as §1

[5] = target: Neu5Ac(a2-6)GlcNAc(b1-4)GlcNAc
How it was run: as §1

[6] = target: Neu5Ac(a2-6)GlcNAc(b1-4)GlcNAc(b1-4)GlcNAc
How it was run: as §1

Neu5Ac(a2-8)Neu5Ac = target: Neu5Ac(a2-8)Neu5Ac
How it was run: as §1

[7] = target: Neu5Ac(a2-8)Neu5Ac(a2-3)Gal(b1-4)Glc
How it was run: as §1

[8] = target: Neu5Ac(a2-8)Neu5Ac(a2-3)[GalNAc(b1-4)]Gal(b1-4)Glc
How it was run: as §1

[9] = target: Neu5Ac(a2-8)Neu5Ac(a2-8)Neu5Ac
How it was run: as §1

[10] = target: Neu5Ac(a2-8)Neu5Ac(a2-8)Neu5Ac(a2-3)Gal(b1-4)Glc
How it was run: as §1

[11] = target: Neu5Ac(a2-8)Neu5Ac(a2-8)Neu5Ac(a2-3)[GalNAc(b1-4)]Gal(b1-4)Glc
How it was run: as §1

[12] = target: Neu5Ac(a2-8)Neu5Ac(a2-8)Neu5Ac(a2-8)Neu5Ac(a2-3)[GalNAc(b1-4)]Gal(b1-4)Glc
How it was run: as §1

[13] = target: Neu5Ac(b2-6)Gal(b1-4)GlcNAc
How it was run: as §1

Neu5Ac(b2-6)GalNAc = target: Neu5Ac(b2-6)GalNAc
How it was run: as §1

[14] = target: Neu5Ac9Ac(a2-3)Gal(b1-3)GlcNAc
How it was run: as §1

[15] = target: Neu5Ac9Ac(a2-3)Gal(b1-4)GlcNAc
How it was run: as §1

[16] = target: Neu5Ac9Ac(a2-6)Gal(b1-4)GlcNAc
How it was run: as §1

[17] = target: Neu5Gc(a2-3)Gal(b1-3)GlcNAc
How it was run: as §1

[18] = target: Neu5Gc(a2-3)Gal(b1-3)[Fuc(a1-4)]GlcNAc
How it was run: as §1

Neu5Gc(a2-3)Gal(b1-4)Glc = target: Neu5Gc(a2-3)Gal(b1-4)Glc
How it was run: as §1

[19] = target: Neu5Gc(a2-3)Gal(b1-4)GlcNAc
How it was run: as §1

[20] = target: Neu5Gc(a2-3)Gal(b1-4)[Fuc(a1-3)]GlcNAc
How it was run: as §1

[21] = target: Neu5Gc(a2-6)Gal(b1-4)GlcNAc
How it was run: as §1

Neu5Gc(a2-6)GalNAc = target: Neu5Gc(a2-6)GalNAc
How it was run: as §1

[22] = target: Neu5Gc(b2-6)Gal(b1-4)GlcNAc
How it was run: as §1

B1: Flo5 (Saccharomyces cerevisiae), P38894 (protein)
chain: MGSSHHHHHHSSGLVPRGSHMSGATEACLPAGQRKSGMNINFYQYSLKDSSTYSNAAYMAYGYASKTKLGSVGGQTDISIDYNIPCVSSSGTFPCPQEDSYGNWGCKGMGACSNSQGIAYWSTDLFGFYTTPTNVTLEMTGYFLPPQTGSYTFSFATVDDSAILSVGGSIAFECCAQEQPPITSTNFTINGIKPWDGSLPDNITGTVYMYAGYYYPLKVVYSNAVSWGTLPISVELPDGTTVSDNFEGYVYSFDDDLSQSNCTIPDPSIH
glycan array binding signal (z-score) [1]: -0.189
glycan array binding signal (z-score) [2]: -0.202
glycan array binding signal (z-score) [3]: 0.476
glycan array binding signal (z-score) (Neu5Ac(a2-6)GalNAc): -0.152
glycan array binding signal (z-score) [4]: -0.089
glycan array binding signal (z-score) [5]: -0.135
glycan array binding signal (z-score) [6]: -0.235
glycan array binding signal (z-score) (Neu5Ac(a2-8)Neu5Ac): -0.148
glycan array binding signal (z-score) [7]: -0.171
glycan array binding signal (z-score) [8]: -0.104
glycan array binding signal (z-score) [9]: -0.209
glycan array binding signal (z-score) [10]: -0.125
glycan array binding signal (z-score) [11]: 0.852
glycan array binding signal (z-score) [12]: -0.149
glycan array binding signal (z-score) [13]: 0.104
glycan array binding signal (z-score) (Neu5Ac(b2-6)GalNAc): -0.154
glycan array binding signal (z-score) [14]: -0.185
glycan array binding signal (z-score) [15]: -0.126
glycan array binding signal (z-score) [16]: -0.036
glycan array binding signal (z-score) [17]: 0.375
glycan array binding signal (z-score) [18]: -0.16
glycan array binding signal (z-score) (Neu5Gc(a2-3)Gal(b1-4)Glc): -0.122
glycan array binding signal (z-score) [19]: -0.131
glycan array binding signal (z-score) [20]: -0.116
glycan array binding signal (z-score) [21]: -0.098
glycan array binding signal (z-score) (Neu5Gc(a2-6)GalNAc): -0.22
glycan array binding signal (z-score) [22]: -0.005
